# Experimental data taken from the supplement of paper PMC4967469.
# IC50 is the fitted dose that halves viability relative to control wells, and lower means more sensitive; a fit beyond the top or the lowest dose is shown as a bound at that dose. The AUC spans the tested range (256-fold, ending at the top dose) of the same fit; values near 1 show little effect. For some of these results: The top dose, if marked as inferred, is not printed in the source and was worked back from the curve model.
# What was measured:
# Test in all cases: Viability of human cancer cell lines after 72 h of drug (GDSC screen)
# [1] = compound: Cc1cc(C(C)Nc2ccccc2)c2nc(N3CCOCC3)cc(=O)n2c1 [TGX221]; conditions: top dose 10 µM
# Experimental: (§1)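 Human cancer cell lines in 384-well plates, medium with 10% serum, drug for 72 h over a 256-fold dose range (nine 2-fold or five 4-fold steps up to the top dose). Adherent lines were fixed and stained with the nucleic acid dye Syto60, suspension lines read with resazurin; signal relative to control wells, capped at 0 and 100%. One two-parameter sigmoid per drug and line, fitted in a mixed model over all curves with the slope shared within a line.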
# [2] = compound: CCN(CC)CCCCNc1ncc2cc(-c3cc(OC)cc(OC)c3)c(NC(=O)NC(C)(C)C)nc2n1 [PD-173074]; conditions: top dose 2 µM; top dose inferred
# Experimental: as §1
# [3] = compound: CN(C)CCOc1ccc(-c2nc(-c3ccncc3)c(-c3ccc4c(c3)CC/C4=N\O)[nH]2)cc1 [SB590885]; conditions: top dose 5 µM; top dose inferred
# Experimental: as §1
# [4] = compound: CS(=O)(=O)CCNCc1ccc(-c2ccc3ncnc(Nc4ccc(OCc5cccc(F)c5)c(Cl)c4)c3c2)o1 [Lapatinib]; conditions: top dose 2 µM
# Experimental: as §1
Cell Line,AUC [1],IC50 [1],AUC [2],IC50 [2],AUC [3],IC50 [3],AUC [4],IC50 [4]
"KMS-12-BM (myeloma, suspension)",0.988,> 10 µM,,,,,,
"LS-411N (large intestine, adherent)",0.843,9.52 µM,0.982,> 2 µM,0.897,> 5 µM,,
"SCC-15 (head and neck, adherent)",0.979,> 10 µM,0.959,> 2 µM,0.952,> 5 µM,,
"EHEB (lymphoid neoplasm, suspension)",,,0.95,> 2 µM,0.966,> 5 µM,0.968,> 2 µM
"HCC1500 (breast, adherent)",0.976,> 10 µM,0.979,> 2 µM,0.978,> 5 µM,,
"HCC1187 (breast, suspension)",0.953,> 10 µM,0.972,> 2 µM,0.978,> 5 µM,,
"NCI-H1299 (large cell lung carcinoma, adherent)",0.981,> 10 µM,,,,,,
"CAL-148 (breast, suspension)",0.982,> 10 µM,,,,,,
"NCI-H187 (small cell lung carcinoma, suspension)",0.988,> 10 µM,0.985,> 2 µM,0.988,> 5 µM,,
"NCI-H23 (lung adenocarcinoma, adherent)",0.988,> 10 µM,0.988,> 2 µM,0.975,> 5 µM,,
"EW-22 (Ewing sarcoma, adherent)",0.988,> 10 µM,0.987,> 2 µM,0.988,> 5 µM,,
"JHOS-4 (ovary, adherent)",,,0.98,> 2 µM,0.98,> 5 µM,,
"H2369 (mesothelioma, adherent)",,,0.97,> 2 µM,0.987,> 5 µM,,
"NCI-H2291 (lung adenocarcinoma, adherent)",,,0.923,> 2 µM,0.952,> 5 µM,,
"LS-513 (large intestine, adherent)",0.987,> 10 µM,0.987,> 2 µM,0.987,> 5 µM,,
"WM1552C (melanoma, adherent)",,,0.988,> 2 µM,0.936,> 5 µM,,
"JHU-029 (head and neck, adherent)",,,0.959,> 2 µM,0.969,> 5 µM,,
"CAL-29 (bladder, adherent)",,,0.982,> 2 µM,0.984,> 5 µM,,

Cell Line,AUC [1],IC50 [1],AUC [2],IC50 [2],AUC [3],IC50 [3],AUC [4],IC50 [4]
"RERF-LC-MS (lung adenocarcinoma, adherent)",,,0.987,> 2 µM,0.987,> 5 µM,,
"HCC-44 (lung adenocarcinoma, adherent)",,,0.941,> 2 µM,0.973,> 5 µM,,
"NCI-H1876 (small cell lung carcinoma, adherent)",0.985,> 10 µM,0.976,> 2 µM,0.987,> 5 µM,,
"SK-MES-1 (lung squamous cell carcinoma, adherent)",,,0.972,> 2 µM,0.979,> 5 µM,,
"HCC1806 (breast, adherent)",,,0.986,> 2 µM,0.989,> 5 µM,,
"MS751 (cervix, adherent)",,,0.978,> 2 µM,0.986,> 5 µM,,
"BICR22 (head and neck, adherent)",,,0.982,> 2 µM,0.974,> 5 µM,,
"HCC1937 (breast, adherent)",,,0.985,> 2 µM,0.979,> 5 µM,,
"SW1710 (bladder, adherent)",,,0.961,> 2 µM,0.973,> 5 µM,,
"C-33-A (cervix, adherent)",,,0.986,> 2 µM,0.986,> 5 µM,,
"NCI-H2342 (lung adenocarcinoma, adherent)",,,0.986,> 2 µM,0.986,> 5 µM,,
"RKN (ovary, adherent)",,,0.932,> 2 µM,0.864,4.78 µM,,
"RVH-421 (melanoma, adherent)",,,0.979,> 2 µM,0.559,0.481 µM,,
"FADU (head and neck, adherent)",,,0.988,> 2 µM,0.963,> 5 µM,,
"NCI-H2444 (non-small cell lung carcinoma, adherent)",,,0.988,> 2 µM,0.987,> 5 µM,,
"Hs766T (pancreas, adherent)",,,0.967,> 2 µM,0.978,> 5 µM,,
"D-336MG (glioma, adherent)",,,0.908,> 2 µM,,,0.922,> 2 µM
